# Data: PubChem BioAssay AID686970 (National Center for Advancing Translational Sciences (NCATS), 2013)
# Out of some 360,000 compounds screened, about 6,000 (1.7%) were called active. Inconclusive means that the source gave no clear call. Such entries were picked first, then a sample of the others. Calls follow the shape of the dose curve; as a rule, active = well fitted cell-killing curve with a large enough effect; inconclusive = small, poorly fitted or top-dose-only effect, or effect the other way; inactive = flat fitted curve, though single readings scatter. No potency is given beside an inconclusive call; the fits are too rough.
# Assay: qHTS for induction of synthetic lethality in tumor cells producing 2HG: qHTS for the HT-1080-NT fibrosarcoma cell line;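 also: NT is the 2HG producing partner of a matched IDH1 knockdown line; nearly all actives have a fitted effect of over 55% in size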;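 as to activity, negative = less viability: 0% = DMSO-treated cells and -100% = media-only wells without cells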
# Conditions: HT-1080-NT fibrosarcoma viability, CellTiter-Glo ATP luminescence, 48 h; activity, negative = less viability: at 46.1 µM (top of the series) unless noted
# How it was run: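 Read-out is CellTiter-Glo luminescence after 10 minutes at room temperature, following 48 hours' compound treatment of HT-1080-NT cells (750 cells/well, RPMI, 5% FBS, 37 degrees C).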
# Potency is read from the fitted curve at half-maximal effect; tags tell the direction and shape of the fitted curve.
Compound,Potency,"activity, negative = less viability"
Cc1ccc(NC2(C#N)C(=O)Nc3ccccc32)cc1C (centres undefined),"inconclusive [rising, single point]",
O=C(CCc1ccccc1)NCC(=O)N/N=C/c1ccc(O)cc1O,,inactive: -25.9%
COc1cccc(NC(=O)CN(C)C(=O)c2cc(-c3ccccc3)nc3ccc(C)cc23)c1,,inconclusive: -31.2% [cytotoxic]
Cc1ccc(S(=O)(=O)Nc2ccccc2C(=O)Nc2nc(-c3ccc(F)cc3)cs2)cc1,"inconclusive [cytotoxic, partial curve, poor fit]",
CCCCCn1c(CCNC(=O)c2cccs2)nc2ccccc21,"inconclusive [cytotoxic, single point]",
CCOc1cccc(-c2nnc3sc(COc4ccc(Cl)cc4)nn23)c1,,inactive: 8.35%
N#C/C(=C\c1cn(Cc2ccc(C#N)cc2)c2ccccc12)C(=O)NCc1cccs1,"inconclusive [cytotoxic, single point]",
Cc1ccc(-c2cc(=O)[nH]c(NCc3ccccc3)n2)cc1,"inconclusive [cytotoxic, single point]",
COc1cccc(-c2cc(NC=O)c3ncc(-c4cccc(C(=O)NCCN(C)C)c4)n3c2)c1,active: 23.1 µM,
Cc1ccc(-n2nc3c(=O)n(CCCC(=O)NC4CCC(C)CC4)nc(C)c3c2C)cc1 (centres undefined),,inactive: 0.563%
Cc1nn(-c2ccccc2)c(N)c1N=Nc1cccc(S(=O)(=O)N2CCOCC2)c1,"inconclusive [cytotoxic, single point]",
CCn1c(-c2cccnc2Cl)nc2cc(Cl)c(Cl)cc21,"inconclusive [cytotoxic, partial curve, poor fit]",
COCCOC(=O)c1[nH]c2c(c1C)C(=O)CC(c1cccs1)C2 (centres undefined),"inconclusive [cytotoxic, full curve]",
CCCCN(CCCC)S(=O)(=O)c1ccc(C(=O)Nc2nnc(CSC)o2)cc1,,inactive: -10.7%
C=CCNC(=S)NNC(=O)c1cccn(Cc2ccc(Cl)c(Cl)c2)c1=O,"inconclusive [cytotoxic, single point]",
Cc1ccc2cc3c(=O)n(C)cc(C=O)c3nc2c1,,inactive: -1.6%
CCNC(=O)C1(C)CCCN(C(=O)/C=C/c2ccccc2)C1 (centres undefined),"inconclusive [rising, single point]",
O=C(CCc1ccccc1)Nc1ncc([N+](=O)[O-])s1,"inconclusive [cytotoxic, partial curve]",
O=C(Nc1ccccc1-c1nnc(SCc2ccc(Cl)cc2Cl)o1)c1ccccc1,,inactive: 8.51%
CCOc1cc(/C=C2\CCC/C(=C\c3cc(Cl)c(O)c(OCC)c3)C2=O)cc(Cl)c1O,active: 7.31 µM,
COc1cccc(CN2CCC2(C)C(=O)Nc2ccc3c(c2)OCO3)c1F (centres undefined),,inactive: -8.85%
Fc1nc(F)c(F)c(NCCCNc2c(F)c(F)nc(F)c2F)c1F,"inconclusive [cytotoxic, single point]",

Compound,Potency,"activity, negative = less viability"
O=C(NC1=C(NC2CCS(=O)(=O)C2)C(=O)c2ccccc2C1=O)c1ccccc1 (centres undefined),active: 14.6 µM,
O=C(CN1CCN(S(=O)(=O)c2ccccc2F)CC1)Nc1ccnn1C1CCCC1,,inactive: -0.33%
CCc1c(O)cc2n(c1=O)-c1ccc(Cl)cc1C2(C)C,"inconclusive [cytotoxic, single point]",
OC[C@@H]1CN(CCN2CCOCC2)C[C@H](n2cnc3c(N4CCCC4)ncnc32)O1,"inconclusive [rising, partial curve]",
Cc1cc(=O)[nH]c(NN=Cc2cc(Br)ccc2O)n1,,inactive: -21.7%
COCCNC(=O)c1cc2c(c(-c3cccc(C#Cc4ccc(OC)c(OC)c4)c3)n1)[C@H](CCO)N(S(=O)C(C)(C)C)C2 (some centres undefined),,inconclusive: -33.8%
Cc1cc(Br)cc(C)c1NC(=O)c1ccc(C#N)cc1F,"inconclusive [cytotoxic, single point]",
O=C(OCC(O)C1OC(c2ccccc2)OC(COC(=O)c2ccccc2)C1O)c1ccccc1 (centres undefined),"inconclusive [cytotoxic, partial curve]",
O=c1cc(-c2cc3ccccc3o2)c2cc(O)ccc2o1,"inconclusive [cytotoxic, single point]",
COc1cc(CNC(C)C23CC4CC(CC(C4)C2)C3)ccc1OCC(=O)NC(C)(C)C (centres undefined),"inconclusive [cytotoxic, single point]",
CCN1CCN(CCNC(=O)CCc2c(C)c3c(C)nn(-c4ccccc4)c3n(C)c2=O)CC1,"inconclusive [cytotoxic, single point]",
C[C@H]1CN([C@@H](C)CO)S(=O)(=O)c2ccc(/C=C/c3ccccc3)cc2O[C@H]1CN(C)C(=O)NC1CCCCC1,"inconclusive [cytotoxic, single point]",
COc1cc(/C=C2/SC(=NCc3ccccc3)N(Cc3ccccc3)C2=O)ccc1O,"inconclusive [cytotoxic, single point]",
C=CCNC(=O)N1CCCC(N2CCN(c3ccccc3OC)CC2)C1 (centres undefined),,inactive: 13.2%
Cc1cc(C)n2c(SC(C)C(=O)NC3(C#N)CCCCC3)nnc2n1 (centres undefined),,inactive: 4.39%
Cc1cc(C)c2cc(C#N)c(NCCNC(=O)c3ccccn3)nc2c1,"inconclusive [cytotoxic, single point]",
C=CC(=O)NN(C)c1ncc(C(F)(F)F)cc1Cl,"inconclusive [cytotoxic, single point]",
COc1cc2c(c(OC)c1OC)-c1ccc(NC(=O)c3ccc(F)cc3)c(=O)cc1[C@@H](NC(C)=O)CC2,"inconclusive [cytotoxic, partial curve]",
O=C(Nc1ccc(N2CCCC2)c(Cl)c1)c1ccc(Br)o1,"inconclusive [cytotoxic, single point]",
O=C(NCc1ccc(F)cc1)C1CCN(S(=O)(=O)N2CCCC2)CC1,,inactive: 0.141%
Cc1nc(-c2ccc([N+](=O)[O-])cc2)nc2[nH]ccc(=O)c12,"inconclusive [rising, partial curve]",
CCc1cc(=O)oc2cc(C)c(CN3CCCC(C)C3)c(O)c12 (centres undefined),,inactive: 4.64% [at 9.24 µM]
